Experimental findings from the supplement of paper PMC10037445 are described below.

Values joined by “and” are separate entries in the source; they are usually repeats but may differ in a detail not shown here. Equal values may be shown once. Whole data set: some 2,900 compounds, median “NF-kB SEAP reporter activity, fold change vs agonist alone” near 0.99, cut for the highest 2% near 2.6. This is one part of the list.

For assay [1], the system named is RAW-Dual. Put plainly: NF-kB SEAP reporter activity, fold change vs agonist alone; higher = enhanced NF-kB activity. Summed up:
(§1)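 Cytotoxic wells were those whose IncuCyte confluency was below 70% of agonist controls in both mask sets. The cells were RAW-Dual macrophages at 50,000 cells/well in DMEM on 384-well plates, dosed with 50 nL of library stock by pin tool, stimulated with a PRR agonist 1 h later, and kept at 37 °C, 5% CO2 for 20 hours. IRF and NF-κB reporter activity, as fold change over agonist-alone wells, came from supernatant read by QuantiLuc luminescence and QuantiBlue absorbance, respectively.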

Assay [2] deals with RAW-Dual. Put plainly: NF-kB SEAP reporter activity, fold change vs agonist alone; cytotoxicity flag (confluency mask): not cytotoxic; higher = enhanced NF-kB activity. Summed up:
as §1

In assay [3] the test system is RAW-Dual. Put plainly: NF-kB SEAP reporter activity, fold change vs agonist alone; cytotoxicity flag (confluency mask): cytotoxic (confluency <70% of control); higher = enhanced NF-kB activity. The procedure, abridged:
as §1

Setting [4] is: library stock concentration (final ~1000-fold dilution): 10 mM, cytotoxicity flag (confluency mask): not cytotoxic, agonist: MPLA (TLR4) […].
The mark [5] stands for this setting: agonist: ODN 1826 (TLR9) 0.5 ug/mL.
The mark [6] stands for this setting: agonist: Pam2CSK4 (TLR2/6) 0.1 ug/mL.
Setting [7] is: agonist: Pam3CSK4 (TLR2/1) 0.1 ug/mL.
The mark [8] stands for this setting: library stock concentration (final ~1000-fold dilution): 10 mM, cytotoxicity flag (confluency mask): not cytotoxic, agonist: Imiquimod (TLR7) […].

For `CC1(C)SC2CC(=O)N2C1C(=O)OCOC(=O)C1N2C(=O)C(NC(=O)C(N)c3ccccc3)C2S(=O)(=O)C1(C)C.Cc1ccc(S(=O)(=O)O)cc1` (stereo unspecified), in the assay with RAW-Dual [1] (setting [4]), the “NF-kB SEAP reporter activity” value turned out to be 1.02.

On to `Cc1ccc(Nc2nccc(N(C)c3ccc4c(C)n(C)nc4c3)n2)cc1S(N)(=O)=O.Cl` (library stock concentration (final ~1000-fold dilution): 10 mM), for which the “NF-kB SEAP reporter activity” value in the assay on RAW-Dual [2] (agonist: LPS (TLR4) 0.1 ug/mL) is 1.1; in the assay on RAW-Dual [2] (setting [5]) it was 0.341; in the assay on RAW-Dual [2] (setting [6]), 0.296; with RAW-Dual [2] (setting [7]), 0.498.

Turning to `Cc1ccc(Nc2nccc(N(C)c3ccc4c(C)n(C)nc4c3)n2)cc1S(N)(=O)=O.Cl`, the “NF-kB SEAP reporter activity” value came to 0.92 in the assay with RAW-Dual [1] (setting [8]) and 1.2 in the assay with RAW-Dual [1] (setting [4]).

With `CCn1c(N)c(C(=O)NC)c(=O)c2ccc(C#CC(C)(O)COC)nc21` (stereo unspecified) (library stock concentration (final ~1000-fold dilution): 10 mM), the “NF-kB SEAP reporter activity” value was determined as 0.812 in the assay on RAW-Dual [2] (agonist: LPS (TLR4) 0.1 ug/mL), 0.853 with RAW-Dual [2] (setting [5]), 0.977 in the assay with RAW-Dual [2] (setting [6]) and 0.99 in the assay on RAW-Dual [2] (setting [7]).

In the case of `CCn1c(N)c(C(=O)NC)c(=O)c2ccc(C#CC(C)(O)COC)nc21` (stereo unspecified), the “NF-kB SEAP reporter activity” value amounted to 0.959 in the assay on RAW-Dual [1] (setting [8]) and 0.911 with RAW-Dual [1] (setting [4]).

For the compound `CCOC(=O)C1=C(C)NC(=S)NC1c1cccc(O)c1` (stereo unspecified) (library stock concentration (final ~1000-fold dilution): 10 mM), the “NF-kB SEAP reporter activity” value turned out to be 0.978 in the assay with RAW-Dual [2] (agonist: LPS (TLR4) 0.1 ug/mL), 1 in the assay on RAW-Dual [2] (setting [5]), 0.948 with RAW-Dual [2] (setting [6]) and 1 with RAW-Dual [2] (setting [7]).

Regarding `CCOC(=O)C1=C(C)NC(=S)NC1c1cccc(O)c1` (stereo unspecified), the “NF-kB SEAP reporter activity” value is 1.07 with RAW-Dual [1] (setting [8]) and 1.03 in the assay on RAW-Dual [1] (setting [4]).

Consider `Nc1nc(OCC2CCCCC2)c2nc[nH]c2n1`, for which, in the assay with RAW-Dual [1] (setting [4]), the “NF-kB SEAP reporter activity” value came out at 1.51.

For the compound `Nc1nc(OCC2CCCCC2)c2nc[nH]c2n1` (library stock concentration (final ~1000-fold dilution): 10 mM), the “NF-kB SEAP reporter activity” value in the assay on RAW-Dual [2] (agonist: LPS (TLR4) 0.1 ug/mL) came to 1.95; with RAW-Dual [2] (setting [5]), 0.924; in the assay on RAW-Dual [2] (setting [6]), 0.711; in the assay with RAW-Dual [2] (setting [7]), 0.565.

For the compound `CC(C)(O)c1ccccc1CCC(SCC1(CC(=O)O)CC1)c1cccc(C=Cc2ccc3ccc(Cl)cc3n2)c1` (stereo unspecified), the “NF-kB SEAP reporter activity” value in the assay with RAW-Dual [1] (library stock concentration (final ~1000-fold dilution): 10 mM, cytotoxicity flag (confluency mask): cytotoxic (confluency <70% of control), agonist: Imiquimod (TLR7) […]) was found to be 0.993; in the assay with RAW-Dual [1] (library stock concentration (final ~1000-fold dilution): 10 mM, cytotoxicity flag (confluency mask): cytotoxic (confluency <70% of control), agonist: MPLA (TLR4) […]) it was 0.896.

Consider `CC(C)(O)c1ccccc1CCC(SCC1(CC(=O)O)CC1)c1cccc(C=Cc2ccc3ccc(Cl)cc3n2)c1` (stereo unspecified) (library stock concentration (final ~1000-fold dilution): 10 mM), for which the “NF-kB SEAP reporter activity” value in the assay on RAW-Dual [3] (agonist: LPS (TLR4) 0.1 ug/mL) came out at 1.28; in the assay on RAW-Dual [3] (setting [5]) it was 0.522; with RAW-Dual [3] (setting [6]), 0.929; with RAW-Dual [3] (setting [7]), 0.491.

For `CN1C2CCC1CC(OC(c1ccccc1)c1ccccc1)C2.CS(=O)(=O)O` (stereo unspecified) (library stock concentration (final ~1000-fold dilution): 10 mM), the “NF-kB SEAP reporter activity” value in the assay with RAW-Dual [2] (agonist: LPS (TLR4) 0.1 ug/mL) came to 1.24; in the assay on RAW-Dual [2] (setting [5]), 0.721; with RAW-Dual [2] (setting [6]), 0.896; in the assay with RAW-Dual [2] (setting [7]), 1.02.

`CN1C2CCC1CC(OC(c1ccccc1)c1ccccc1)C2.CS(=O)(=O)O` (stereo unspecified): the “NF-kB SEAP reporter activity” value in the assay with RAW-Dual [1] (setting [8]) worked out at 1.89; with RAW-Dual [1] (setting [4]) it was 1.29.

Turning to `CCOC(=O)C1=CCCCC1S(=O)(=O)Nc1ccc(F)cc1Cl` (stereo unspecified) (library stock concentration (final ~1000-fold dilution): .1 mM), the “NF-kB SEAP reporter activity” value was 0.288 in the assay with RAW-Dual [2] (agonist: LPS (TLR4) 0.1 ug/mL), 1.09 with RAW-Dual [2] (setting [5]), 1.36 in the assay on RAW-Dual [2] (setting [6]) and 1.39 in the assay on RAW-Dual [2] (setting [7]).

Regarding `CCOC(=O)C1=CCCCC1S(=O)(=O)Nc1ccc(F)cc1Cl` (stereo unspecified), the “NF-kB SEAP reporter activity” value was 1.2 in the assay on RAW-Dual [1] (library stock concentration (final ~1000-fold dilution): .1 mM, cytotoxicity flag (confluency mask): not cytotoxic, agonist: Imiquimod (TLR7) […]) and 0.252 in the assay with RAW-Dual [1] (library stock concentration (final ~1000-fold dilution): .1 mM, cytotoxicity flag (confluency mask): not cytotoxic, agonist: MPLA (TLR4) […]).

In the case of `Nc1ncnc2[nH]nc(Nc3ccc(F)cc3)c12`, the “NF-kB SEAP reporter activity” value came to 1.13 in the assay with RAW-Dual [1] (setting [8]) and 2.6 in the assay with RAW-Dual [1] (setting [4]).

`Nc1ncnc2[nH]nc(Nc3ccc(F)cc3)c12` (library stock concentration (final ~1000-fold dilution): 10 mM): the “NF-kB SEAP reporter activity” value in the assay on RAW-Dual [2] (agonist: LPS (TLR4) 0.1 ug/mL) was 6.5; in the assay on RAW-Dual [2] (setting [5]) it was 1.43; in the assay with RAW-Dual [2] (setting [6]), 0.872; with RAW-Dual [2] (setting [7]), 1.26.

`CCCCNc1ncc(C(=O)NCc2ccc(-n3ccnc3)cc2)c(NC2CCC(O)CC2)n1` (stereo unspecified): the “NF-kB SEAP reporter activity” value in the assay on RAW-Dual [1] (setting [8]) came to 1.01; with RAW-Dual [1] (setting [4]), 1.59.

Consider `CCCCNc1ncc(C(=O)NCc2ccc(-n3ccnc3)cc2)c(NC2CCC(O)CC2)n1` (stereo unspecified) (library stock concentration (final ~1000-fold dilution): 10 mM), for which the “NF-kB SEAP reporter activity” value with RAW-Dual [2] (agonist: LPS (TLR4) 0.1 ug/mL) is 0.621; in the assay on RAW-Dual [2] (setting [5]) it was 0.381; in the assay with RAW-Dual [2] (setting [6]) it was 0.331; in the assay with RAW-Dual [2] (setting [7]), 0.4.

As for `CC(C)NCC(O)COc1ccc(CC(N)=O)cc1` (stereo unspecified) (library stock concentration (final ~1000-fold dilution): 10 mM), the “NF-kB SEAP reporter activity” value in the assay on RAW-Dual [2] (agonist: LPS (TLR4) 0.1 ug/mL) stood at 1.29; in the assay on RAW-Dual [2] (setting [5]) it was 0.938; with RAW-Dual [2] (setting [6]), 1.45; in the assay with RAW-Dual [2] (setting [7]), 0.944.

On to `CC(C)NCC(O)COc1ccc(CC(N)=O)cc1` (stereo unspecified), for which, in the assay with RAW-Dual [1] (setting [4]), the “NF-kB SEAP reporter activity” value was 1.04.

For the compound `NC(CC(=O)N1CCn2c(nnc2C(F)(F)F)C1)Cc1cc(F)c(F)cc1F` (stereo unspecified) (library stock concentration (final ~1000-fold dilution): 10 mM), the “NF-kB SEAP reporter activity” value was 0.947 and 0.954 in the assay on RAW-Dual [2] (agonist: LPS (TLR4) 0.1 ug/mL); 0.949 and 0.994 with RAW-Dual [2] (setting [5]); 1.15 and 0.952 in the assay on RAW-Dual [2] (setting [6]); 1.05 and 1.03 in the assay on RAW-Dual [2] (setting [7]).

Turning to `NC(CC(=O)N1CCn2c(nnc2C(F)(F)F)C1)Cc1cc(F)c(F)cc1F` (stereo unspecified), the “NF-kB SEAP reporter activity” value with RAW-Dual [1] (setting [8]) amounted to 0.912.

As to `O=C(/C=C/c1ccc(O)c(O)c1)O[C@@H]1C[C@@](O)(C(=O)O)C[C@@H](O)[C@@H]1O`, the results for the “NF-kB SEAP reporter activity” value in the assay on RAW-Dual [1] (setting [8]) and with RAW-Dual [1] (setting [4]) were 0.869 and 0.996, respectively.

Regarding `O=C(/C=C/c1ccc(O)c(O)c1)O[C@@H]1C[C@@](O)(C(=O)O)C[C@@H](O)[C@@H]1O` (library stock concentration (final ~1000-fold dilution): 10 mM), the “NF-kB SEAP reporter activity” value amounted to 1.09 in the assay with RAW-Dual [2] (agonist: LPS (TLR4) 0.1 ug/mL), 1.1 in the assay with RAW-Dual [2] (setting [5]), 1.21 in the assay with RAW-Dual [2] (setting [6]) and 1.03 in the assay on RAW-Dual [2] (setting [7]).

As for `CCCCCCCCCCCCCCOC1C(OC)OC(CN)C(O)C1OCCCCCCCCCCCCCC` (stereo unspecified), the “NF-kB SEAP reporter activity” value was 0.533 in the assay with RAW-Dual [1] (library stock concentration (final ~1000-fold dilution): 1 mM, cytotoxicity flag (confluency mask): not cytotoxic, agonist: Imiquimod (TLR7) […]) and 1.05 in the assay on RAW-Dual [1] (library stock concentration (final ~1000-fold dilution): 1 mM, cytotoxicity flag (confluency mask): not cytotoxic, agonist: MPLA (TLR4) […]).

For `CCCCCCCCCCCCCCOC1C(OC)OC(CN)C(O)C1OCCCCCCCCCCCCCC` (stereo unspecified) (library stock concentration (final ~1000-fold dilution): 1 mM), the “NF-kB SEAP reporter activity” value with RAW-Dual [2] (agonist: LPS (TLR4) 0.1 ug/mL) came to 1.03; with RAW-Dual [2] (setting [5]) it was 1.01; in the assay on RAW-Dual [2] (setting [6]), 1.1; with RAW-Dual [2] (setting [7]), 1.28.
